Reference: article PMC12040169 (PLOS Biology, 2025)
This is one part of the list.

Each compound was assayed on T1, C. trachomatis L2/434/Bu expressing GFP (CTL2-GFP). Settings: total inclusion area; 28.5 h, 10 µM; inhibitor.
T1 construct: L2/434/Bu GFP intracellular growth in HeLa cells
Set-up: species or system HeLa; C. trachomatis total inclusion area by high-content imaging, normalised to DMSO
Outline: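 Imaging read-out: GFP inclusions and Hoechst nuclei captured by high-content imaging after fixation. Inclusion area/number = chlamydial growth; nuclei count = host cell viability. MIC calculated per earlier method.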

Structure (SMILES) | % of control remaining
COc1cc(C(=O)NCc2c(-c3ccccc3)noc2C)cc(OC)c1OC [CBK144097] | 97.0381
CCn1c(C)cc(C(=O)CSc2nnc(N3CCCC3)n2C2CC2)c1C [CBK306035] | 85.0176
O=C(c1ccc(S(=O)(=O)N2CCCCC2)cc1)N1CCN(CCN2C(=O)c3cccc4cccc(c34)C2=O)CC1 [CBK262536] | 99.4319
O=C1/C(=C/c2cn(Cc3cccc4ccccc34)c3ccccc23)C(O)=NN1c1ccccc1 [CBK264849] | 117.063
Nc1nc2sc3c(c2cc1C(=O)N1CCOCC1)CCCC3 [CBK022399] | 100.709
O=C(NC1CC1)c1ccc(-c2cnc3[nH]c(=O)n(-c4ccc5[nH]ccc5c4)c3n2)cc1 [CBK064916] | 146.881
CN1CCC(CNS(=O)(=O)c2cccc3c2OCC3)CC1=O (centres unmarked) [CBK305465] | 43.2454
COc1ccc(CN(C)C2CCOCC2)cc1Cn1cncn1 [CBK306728] | 54.3584
O=C(CNC1Cc2ccccc2C1)Nc1ccc(Cl)cc1C(=O)c1ccccc1Cl [CBK074764] | 67.5227
COc1ccc(C[C@@H]2NC(=O)[C@@H]3CN(C(=O)c4ccc(OC)cc4)CCN3C2=O)cc1 [CBK289598] | 105.92
Cc1cc(C)c(CNC(=O)C2CC(=O)N(Cc3ccccn3)C2)cn1 (centres unmarked) [CBK304673] | 112.331
Cc1c(C(=O)NCc2ccccn2)nnn1-c1cccc(C(F)(F)F)c1 [CBK107395] | 91.3765
COc1cccc(C2(NC(=O)c3cnsc3)CCCC2)c1 [CBK283611] | 119.336
COc1ccc(-n2[nH]c(C)c(Cc3c(Cl)cccc3Cl)c2=O)cc1 [CBK084521] | 97.7883
CC(=O)Nc1ccc(S(=O)(=O)Nc2ccc(S(=O)(=O)Nc3ccc(C)c(C)c3)cc2)cc1 [CBK264643] | 79.5823
CCN(Cc1ccncc1)C(=O)NCc1cc(C)on1 [CBK155122] | 93.4273
CC(C)[C@H](CO)Nc1nccnc1-c1cccs1 [CBK089047] | 127.285
Cc1ccc2c(c1)nc(CNC(=O)NCCCO)n2C [CBK306174] | 73.5653
CN(C)CCNc1nc(-c2ccncc2)cnc1N [CBK063580] | 89.4124
Cc1cc(C)n(CC2CCCCN2C(=O)COc2cccnc2)n1 (centres unmarked) [CBK304040] | 82.2329
O=C(Cn1cc(C(=O)COc2ccccc2)c2ccccc21)Nc1ccccc1 [CBK267653] | 95.3921
O=C(C1=C(O)C(=O)N(c2ncccn2)C1c1cccc([N+](=O)[O-])c1)c1ccc(F)cc1 (centres unmarked) [CBK264932] | 107.215
CC(Nc1oc(-c2ccco2)nc1S(=O)(=O)c1ccc(F)cc1)c1ccccc1 (centres unmarked) [CBK267671] | 110.816
OCCOc1ccccc1N1CCOCC1 [CBK001767C] | 85.7772
O=C(Nc1cc(-c2nc3ncccc3o2)ccc1Cl)c1cccnc1 [CBK269700] | 89.1811
CCOCC1CCN(C(=O)c2ncsc2Nc2cccnc2)C1 (centres unmarked) [CBK304514] | 101.967
COc1c(C)cnc(COC(=O)N2CCOCC2)c1C [CBK200145] | 119.785

Structure (SMILES) | % of control remaining
CC(C)CC(CC(C)C)OCC(=O)NCC1(c2ccc3ccccc3c2)CCC1 [CBK067404] | 60.9792
O=C(NC1CCCc2nc(N3CCC(CO)CC3)ncc21)C1CCCC1 (centres unmarked) [CBK307415] | 71.4707
Cc1c(C(=O)N2CCN(C3CCCCC3)C(=O)C2)[nH]c2ccccc12 [CBK282539] | 101.239
COC1CCC(C(=O)Nc2cnc(-c3cccc(OC(F)(F)F)c3)c(-c3cccnc3)n2)CC1 (centres unmarked) [CBK036754] | 127.037
Cc1ccccc1CN1CCCN(C(=O)CCNC(=O)c2ccco2)CC1 [CBK297718] | 104.262
c1csc(-c2cncc(NCCCN3CCOCC3)n2)c1 [CBK065623] | 107.941
N#CCCN(C(=O)Nc1ccc2c(c1)OCCO2)C1CCCCC1 [CBK156364] | 102.087
C[C@H]1[C@@H]2[C@@H](O)C([C@H](C)C(=O)N3CCCC3)CC[C@@]2(C)CC[C@@H]1NC(=O)c1ccncc1 (some centres unmarked) [CBK289450] | 101.922
CCc1nc2ccc(C(=O)NCCOc3ccc(OC)cc3)cn2c1N(C)CC [CBK145504] | 91.1592
O=c1oc(-c2cccc(F)c2)nc2ccc(Cc3ccc4nc(-c5cccc(F)c5)oc(=O)c4c3)cc12 [CBK262856] | 86.5178
O=C(O)COc1ccc(S(=O)(=O)N2CCCCC2)cc1Cl [CBK268419] | 113.373
CCc1cccc2c(CC(=O)NC3CCCOC3)c(C)[nH]c12 (centres unmarked) [CBK282584] | 117.025
Cn1cnnc1C1CCCN(C(=O)NCc2cccc(F)c2)C1 (centres unmarked) [CBK305792] | 52.8821
CCOc1ccccc1-c1ccccc1NC(=O)c1cc(=O)n(C)c2ccccc12 [CBK285843] | 91.7195
O=C(Cn1nnc2ccccc2c1=O)NCC(F)(F)F [CBK304533] | 38.3234
O=C(CCn1c(C(F)F)cc2cccnc21)NCc1ccc(F)cc1 [CBK285067] | 84.6539
COc1ccc(/C=N/NC(=O)CCc2c(C)n[nH]c2C)cc1O [CBK262894] | 97.3159
COc1ccc(-c2cccc(Nc3cccnc3)n2)cc1OC [CBK037644] | 113.714
Cc1c(C)n(C)c2nc(N3CCCC3)nc(N3CCCC3)c12 [CBK016683C] | 97.2354
COc1ccc(Cn2nc(NC(=O)OC(C)C)c3ccccc32)cc1 [CBK048404] | 108.478
Cc1ccc(CSCC(=O)N2CCC(Cc3ccccc3)CC2)cc1 [CBK058739] | 64.5159
CCC(C)N1CCN(S(=O)(=O)c2ccccc2[N+](=O)[O-])CC1 (centres unmarked) [CBK264270G] | 115.069
Cc1cc2c3c(c1)c1c(n3CCC2)CCNCC1 [CBK018380C] | 69.6598
CC(=O)C1=C(c2ccccc2)NC(=S)NC1c1cc(Cl)ccc1OCC(=O)O (centres unmarked) [CBK267300] | 105.442
Cc1nc(CC(=O)OC(C)C(=O)N2CCCc3ccccc32)cs1 (centres unmarked) [CBK305285] | 61.7802
Cc1ccc(-c2cncc(N3CCN(CCO)CC3)n2)cc1C [CBK065912] | 101.283
CC1=Nc2ccc(Cl)cc2C(C)(C)O1 [CBK022763C] | 81.6762

Structure (SMILES) | % of control remaining
c1cc(-c2nccnc2OCCn2ccnc2)ccn1 [CBK106737] | 90.6683
O=C(c1ccccc1F)N1CCC(c2cc3ncccc3[nH]2)CC1 [CBK283391] | 99.5982
O=C(CCN1C(=O)C2C3CCC(C3)C2C1=O)OCC(=O)c1ccc(-c2ccccc2)cc1 (centres unmarked) [CBK265113] | 126.803
Cc1ccnc(NCC2CCN(c3cc(=O)n4oc(C)cc4n3)C2)c1 (centres unmarked) [CBK305191] | 36.3535
c1ccc(CNc2nccn3ccnc23)nc1 [CBK037526] | 105.494
CN(C)CCN1CCN(c2nccnc2-c2cccc(CO)c2)CC1 [CBK037047] | 125.664
Cc1ccccc1-n1ccn(C(=O)CCC2CCCC2)c1=O [CBK106571] | 68.6864
Cn1cncc1C(=O)N1CCN(Cc2ccccc2)CC1 [CBK200178] | 103.719
COc1cncc(-c2cnc(N)c(NC3CCOCC3)n2)c1 [CBK063846] | 95.5749
Cc1ccc(S(=O)(=O)N(CC(=O)Nc2cccnc2)c2ccc(C)c(C)c2)cc1 [CBK263974] | 99.1238
CCc1nc2ccc(C(=O)NCCN3CCNC3=O)cn2c1N(CCN(C)C)CC1CC1 [CBK145469] | 77.0559
CCNc1nc(NCc2ccccc2)nc(Oc2ccc(O)nn2)n1 [CBK266591] | 124.33
Cc1cc(C)c(NC(=O)CSc2nnc(-c3cccnc3)s2)c([N+](=O)[O-])c1 [CBK268929] | 108.697
O=C1CCCc2nccc(-c3ccc(Cl)cc3)c21 [CBK287870] | 66.7863
CN(Cc1ccncc1)C(=O)CCn1c(C(F)F)cc2cccnc21 [CBK285070] | 94.1634
CCOc1ccc(-c2cn(S(=O)(=O)c3cccc4nsnc34)nc2N)cc1 [CBK267883] | 76.6439
Cc1ccc(C2CCC(C(=O)O)C(C(=O)O)C2)cc1C (centres unmarked) [CBK287184] | 89.1689
COc1ccc(CCN(C)Cc2ccccn2)cc1OC [CBK261912] | 101.953
CC(Cn1cncc1-c1cnn(C)c1)Oc1ccccc1Cl (centres unmarked) [CBK281737] | 90.8962
CC1CCc2n[nH]c(C(=O)N3CCc4ncc(Cl)cc4C3)c2C1 (centres unmarked) [CBK284874] | 95.7645
Cc1cccc(CC(=O)N2CCC(Cc3cccc(-c4cccs4)c3)(C(N)=O)CC2)c1 [CBK285752] | 105.501
CN1CCOCC(CNC(=O)c2ccc(-c3cnc(N)nc3)cc2)C1 (centres unmarked) [CBK307119] | 56.2649
O=C(Nc1ccc(S(=O)(=O)N2CCCCCC2)cc1)c1nc2ncccn2n1 [CBK266155] | 121.592
COc1ccc(/C=C2\S/C(=N\Cc3ccccc3)N(Cc3ccccc3)C2=O)cc1C(=O)O [CBK262715] | 114.937
Cc1c(F)cccc1CN(CCCN)C(=O)Nc1ccccc1C(C)(C)C [CBK034699C] | 52.1823
O=C(c1csnn1)N1Cc2ccccc2C1 [CBK200325] | 99.2702
